According to the supplement of paper PMC8813932:
Structures can show the parent of a compound that is named as a salt. ± gives the standard deviation of the averaged measurements. The list shows a part of the results. Single values are uncertain, as repeats are few or missing.

Legend:
Assay in all cases: log2 surviving fraction relative to plate median (drug vs vehicle, or drug+dl922-947 vs dl922-947 alone); ovarian cancer lines: OVCAR4 is platinum-sensitive while Ov4Cis resists cisplatin and Ov4Carbo carboplatin; higher = more cell survival
Conditions in all cases: compound concentration: 10 uM, 192 h
OVCAR4 = tested on: OVCAR4
Ov4Carbo = tested on: Ov4Carbo
Ov4Cis = tested on: Ov4Cis
[1] = dl922-947 oncolytic adenovirus co-treatment: MOI 10
[2] = dl922-947 oncolytic adenovirus co-treatment: none

SMILES	log2 surviving fraction (OVCAR4; [1])	log2 surviving fraction (OVCAR4; [2])	log2 surviving fraction (Ov4Carbo; [1])	log2 surviving fraction (Ov4Carbo; [2])	log2 surviving fraction (Ov4Cis; [1])	log2 surviving fraction (Ov4Cis; [2])
CCN(CC)C(=O)C1(c2ccccc2)CC1CN (centres undefined) [Milnacipran HCl]	0.658 ± 0.72	0.0155 ± 0.13	0.392	0.275	0.595	0.967
C=C(c1ccc(C(=O)O)cc1)c1cc2c(cc1C)C(C)(C)CCC2(C)C [Bexarotene]	0.241 ± 0.48	-0.418 ± 0.11	1.31	-1.7	0.154	-0.189
C[C@]12C=CC(=O)N[C@@H]1CC[C@@H]1[C@@H]2CC[C@]2(C)[C@@H](C(=O)Nc3cc(C(F)(F)F)ccc3C(F)(F)F)CC[C@@H]12 [Dutasteride]	0.671 ± 0.09	-3.06 ± 5.5	1.1	1.96	-0.0557	-0.249
C=C1c2cccc(O)c2C(=O)C2=C(O)[C@]3(O)C(=O)C(C(N)=O)=C(O)[C@@H](N(C)C)[C@@H]3[C@@H](O)[C@H]12 [Methacycline hydrochloride (Physiomycine)]	0.463 ± 0.73	-0.64 ± 0.21	0.0429	-0.238	-0.528	-1.08
COC(=O)C1=C(C)NC(C)=C(C(=O)OCCN2CCN(C(c3ccccc3)c3ccccc3)CC2)C1c1cccc([N+](=O)[O-])c1 (centres undefined) [Manidipine (Manyper)]	-1.34 ± 2.4	-3.3 ± 2.6	-4.35	-8.95	-0.00729	-2.36
N=C(N)NC(=N)N1CCOCC1 [Moroxydine]	-0.184 ± 0.34	-0.281 ± 0.28	-0.0869	0.265	-1.04	-0.275
CCS(=O)(=O)CCn1c([N+](=O)[O-])cnc1C [tinidazole]	0.49 ± 0.48	-0.145 ± 0.92	-0.719	0.0807	0.267	0.5
O=C(O[C@H]1CN2CCC1CC2)N1CCc2ccccc2[C@@H]1c1ccccc1 [Solifenacin succinate]	-2.24 ± 0.99	0.157 ± 0.16	-3.72	1.51	-3.89	-1.86
N[C@@H](CSCCCO)C(=O)O [Fudosteine]	0.215 ± 0.086	-0.0158 ± 0.26	0.816	-0.18	0.0644	-0.628
O=C(O)C1(C(=O)O)CCC1.[NH2-].[NH2-].[Pt+2] [Carboplatin]	-1.23 ± 0.18	-0.472 ± 1.2	-0.124	1.63	-1.09	0.0934
CC(C[N+](C)(C)C)OC(N)=O (centres undefined) [Bethanechol chloride]	0.995 ± 0.65	-0.000232 ± 0.23	-0.00949	1.78	0.22	0.706
CNC(=O)c1ccc(N2C(=S)N(c3ccc(C#N)c(C(F)(F)F)c3)C(=O)C2(C)C)cc1F [MDV3100 (Enzalutamide)]	0.869 ± 1.4	3.19 ± 3.7	0.354	1.2	-0.0594	0.619
CCn1cc(C(=O)O)c(=O)c2cc(F)c(N3CCNCC3)cc21 [Norfloxacin (Norxacin)]	0.0784 ± 1.2	-0.234 ± 0.089	0.501	-0.00239	0.322	0.459
CCc1c2c(nc3ccc(OC(=O)N4CCC(N5CCCCC5)CC4)cc13)-c1cc3c(c(=O)n1C2)COC(=O)[C@]3(O)CC [Irinotecan]	-4.63 ± 0.78	-4.19 ± 2.4	-6.53	-9.59	-7.54	-7.97
Nc1ccc(S(N)(=O)=O)cc1 [Sulfanilamide]	2.03 ± 1.9	0.073 ± 0.018	1.86	0.641	0.276	0.64
O=C(Nc1cccc2c(=O)cc(-c3nnn[nH]3)oc12)c1ccc(OCCCCc2ccccc2)cc1 [Pranlukast]	0.165 ± 0.93	0.377 ± 0.26	0.311	0.58	0.339	-0.12
Nc1ncn([C@@H]2O[C@H](CO)[C@@H](O)[C@H]2O)c(=O)n1 [Azacitidine (Vidaza)]	0.436 ± 1.3	0.0773 ± 1.1	0.338	0.88	-0.842	0.322
CC(=O)OCC(=O)[C@@]12OC(C)(C)O[C@@H]1C[C@H]1[C@@H]3C[C@H](F)C4=CC(=O)C=C[C@]4(C)[C@@]3(F)[C@@H](O)C[C@@]12C [Fluocinonide (Vanos)]	1 ± 0.54	-0.195 ± 0.77	0.821	0.491	1.32	-0.992
CN(C)CCOC(C)(c1ccccc1)c1ccccn1 (centres undefined) [Doxylamine Succinate]	0.701 ± 0.2	-0.127 ± 0.68	-0.839	-0.0379	0.0359	0.787
